Among the test systems are SkMel28; SkMel2; SkMel30; SkMel5; UACC257; UACC62; WM115; WM1716; WM1745; WM3526.
What all share (assay): cell count relative to DMSO control; melanoma cells; higher = more viable cells
Settings in all cases: library dose: standard library concentration; 72 h

The other results are listed elsewhere or left out. Most values come without repeats; read them as rough.
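Further: cells treated in 1,536-well plates, then fixed and DAPI-stained, with nuclei counted from automated high-throughput microscope images.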

As to `Clc1ccc(Nc2nnc(Cc3ccncc3)c3ccccc23)cc1` [vatalanib] + C[As](C)SC[C@H](NC(=O)CC[C@H](N)C(=O)O)C(=O)NCC(=O)O [Darinaparsin] (first compound 10 µM, partner dose 2 µM), the cell count in the test on SkMel28 is 55.6%; in the test with SkMel2 it was 83.2%; with SkMel30, 74.9%; with SkMel5, 46.4%; in the test on UACC257, 40.7%; with UACC62 it was 61.1%. Further, the cell count was 73.9% with WM115, 67.5% in the test on WM1716, 62.6% with WM1745 and 64.6% in the test on WM3526.

As to `COc1ccc(COc2ccc(Cc3cnc(N)nc3N)cc2OC)cc1` + C/C(O)=C(\C#N)C(=O)Nc1cc(Br)ccc1Br [LFM-A13] (first compound 5 µM, partner dose 10 µM), the cell count in the test with SkMel28 amounted to 89.6%; in the test with SkMel2, 105%; in the test on SkMel30 it was 73.1%; in the test on SkMel5 it was 74.7%; with UACC257 it was 96.6%; in the test with UACC62, 108%. Also, the cell count in the test on WM115 stood at 99.4%; with WM1716, 99.5%; in the test with WM1745 it was 99%; in the test on WM3526, 106%.

With `O=C(CCCCCCC(=O)Nc1ccccc1)NO` [vorinostat] + C/C(O)=C(\C#N)C(=O)Nc1cc(Br)ccc1Br [LFM-A13] (first compound 0.4 µM, partner dose 10 µM), the cell count in the test on SkMel28 worked out at 54.3%; in the test on SkMel2, 91.3%; in the test with SkMel30, 81%; with SkMel5, 85.3%; in the test with UACC257 it was 64.4%; with UACC62, 74%. The cell count in the test with WM115 amounted to 99.9%; with WM1716, 117%; with WM1745, 77%; in the test with WM3526, 82.3%.

With `O=C(O)C(=O)Nc1sc2c(c1C(=O)O)CCNC2` + O=C(Oc1ccc([N+](=O)[O-])cc1)N1CCC(C(O)(c2ccc3c(c2)OCO3)c2ccc3c(c2)OCO3)CC1 [JZL184] (first compound 8.33333 µM, partner dose 5 µM), the cell count amounted to 61.2% in the test on SkMel28; 96.6% with SkMel2; 103% in the test on SkMel30; 104% in the test on SkMel5; 73.4% in the test with UACC257; 110% in the test on UACC62. Further, the cell count came to 108% in the test on WM115, 102% in the test with WM1716, 132% in the test on WM1745 and 76.1% in the test with WM3526.

As to `O=C(O)c1ccc2c(c1)nc(Nc1cccc(Cl)c1)c1ccncc12` + C[As](C)SC[C@H](NC(=O)CC[C@H](N)C(=O)O)C(=O)NCC(=O)O [Darinaparsin] (first compound 2 µM, partner dose 2 µM), the cell count in the test with SkMel28 was determined as 68.4%; in the test on SkMel2, 74.1%; in the test on SkMel30, 70.6%; with SkMel5, 57.8%; in the test with UACC257, 78.4%; in the test with UACC62, 85.5%. For the same molecule, the cell count stood at 52.8% in the test on WM115, 69.8% in the test on WM1716, 64.3% in the test with WM1745 and 49.4% in the test on WM3526.

For the molecule `O=C(CCCCCCC(=O)Nc1ccccc1)NO` [vorinostat] + Cc1cc(SCc2sc(-c3ccc(C(F)(F)F)c(F)c3)nc2C)ccc1OCC(=O)O [GW0742] (first compound 0.4 µM, partner dose 10 µM), the cell count was 78.1% in the test with SkMel28; 98.8% with SkMel2; 84.2% in the test on SkMel30; 82.2% in the test on SkMel5; 74.7% in the test on UACC257; 72% in the test on UACC62. The cell count is 101% with WM115, 97% in the test with WM1716, 99.5% in the test on WM1745 and 74.8% in the test on WM3526.

Turning to `C=CCn1c(=O)c2cnc(Nc3ccc(N4CCN(C)CC4)cc3)nc2n1-c1cccc(C(C)(C)O)n1` + O=C(Oc1ccc([N+](=O)[O-])cc1)N1CCC(C(O)(c2ccc3c(c2)OCO3)c2ccc3c(c2)OCO3)CC1 [JZL184] (first compound 0.1 µM, partner dose 5 µM), the cell count in the test with SkMel28 turned out to be 24.3%; in the test with SkMel2, 67.2%; in the test on SkMel30, 59.1%; with SkMel5, 47.7%; in the test with UACC257, 83.1%; in the test with UACC62, 54.1%. Moreover, the cell count is 80.2% in the test with WM115, 67.6% in the test with WM1716, 53.9% in the test with WM1745 and 57% in the test on WM3526.

As for `Cn1c(Nc2ccc(C(F)(F)F)cc2)nc2cc(Oc3ccnc(-c4ncc(C(F)(F)F)[nH]4)c3)ccc21` + C/C(O)=C(\C#N)C(=O)Nc1cc(Br)ccc1Br [LFM-A13] (first compound 0.4 µM, partner dose 10 µM), the cell count in the test with SkMel28 was 29.3%; in the test with SkMel2 it was 58.6%; in the test with SkMel30 it was 65.2%; in the test with SkMel5, 37.3%; in the test with UACC257, 75.4%; with UACC62 it was 50.8%. The cell count with WM115 is 45.5%; in the test on WM1716 it was 71.4%; in the test with WM1745 it was 60.4%; with WM3526, 40.3%.

As for `COc1cc(N2CCC(N3CCN(C)CC3)CC2)ccc1Nc1ncc(Cl)c(Nc2ccccc2S(=O)(=O)C(C)C)n1` + O=C(Oc1ccc([N+](=O)[O-])cc1)N1CCC(C(O)(c2ccc3c(c2)OCO3)c2ccc3c(c2)OCO3)CC1 [JZL184] (first compound 0.4 µM, partner dose 5 µM), the cell count in the test on SkMel28 was 68.5%; with SkMel2 it was 68.7%; with SkMel30, 89%; in the test on SkMel5 it was 54.2%; in the test with UACC257, 86.9%; in the test with UACC62, 62.4%. Besides, the cell count was found to be 65.1% with WM115, 72% with WM1716, 45.5% with WM1745 and 75.8% in the test with WM3526.

Regarding `C=CCn1c(=O)c2cnc(Nc3ccc(N4CCN(C)CC4)cc3)nc2n1-c1cccc(C(C)(C)O)n1` + Cc1cc(SCc2sc(-c3ccc(C(F)(F)F)c(F)c3)nc2C)ccc1OCC(=O)O [GW0742] (first compound 0.1 µM, partner dose 10 µM), the cell count in the test on SkMel28 is 29.9%; in the test on SkMel2, 85%; in the test on SkMel30 it was 75.7%; with SkMel5 it was 60.5%; in the test with UACC257, 78.5%; in the test with UACC62 it was 73.7%. The cell count was determined as 66% in the test with WM115, 95% in the test with WM1716, 57.5% in the test on WM1745 and 69.3% in the test with WM3526.

With `Cc1cc(Nc2cc(N3CCN(C)CC3)nc(Sc3ccc(NC(=O)C4CC4)cc3)n2)n[nH]1` [Tozasertib] + Cn1cc(C2=C(c3cn(C4CCN(Cc5ccccn5)CC4)c4ccccc34)C(=O)NC2=O)c2ccccc21 [Enzastaurin] (first compound 0.03 µM, partner dose 4 µM), the cell count turned out to be 59.9% with SkMel28; 100% in the test on SkMel2; 88.2% in the test on SkMel30; 91% in the test with SkMel5; 78.8% with UACC257; 69.4% in the test on UACC62. For the same molecule, the cell count with WM115 was determined as 74.5%; in the test with WM1716, 79.2%; in the test on WM1745, 67.9%; in the test on WM3526, 90.1%.

(Values after the supplement of paper PMC4604168 (melanoma cell lines).)
